Measured values as given in PubChem BioAssay AID504832 (National Center for Advancing Translational Sciences (NCATS), 2011).
“And” between values parts separate entries of the source, which are not always exact repeats. Equal values may be shown once. In all, about 310,000 compounds went through this assay and about 18,000 (5.8%) were called active. Inconclusive results, whose numbers are uncertain, are shown with a selection of clear calls. Calls come from the whole dose curve; as a rule, active = well fitted inhibition curve with a large enough effect; inconclusive = small, poorly fitted or top-dose-only effect, or another doubt; inactive = no such curve, though single readings can be large or run the other way. Potencies of inconclusive entries are left out as doubtful fits.

Experiment: Primary qHTS for delayed death inhibitors of the malarial parasite plastid, 48 hour incubation
Details: P. falciparum luciferase growth in erythrocytes; series mostly up to 28.7 µM
Procedure, shortened: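 Compounds are pin-transferred into medium, infected erythrocytes (2% hematocrit, 0.1% parasitemia final) are added, and plates sit one parasite generation at 37 C in 5% CO2. Detection reagent is then added and luminescence measured.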
% is set by controls: 0 for no effect and ±100 for the full control effect; potency is the fitted concentration of half-maximal effect; tags give direction and shape of the fitted curve.

Compound	Potency	activity change, negative = inhibition
Nc1nn(S(=O)(=O)c2cccc3nsnc23)cc1-c1ccc(Br)cc1	inconclusive [inhibitor, single point]	
CCOC(=O)C1CCN(C(=O)CC(NS(=O)(=O)c2ccc(OC)cc2)C(C)C)CC1 (stereo unspecified)	inconclusive [inhibitor, partial curve, poor fit]	
COC(=O)C1=C(C(=O)OC)SC(=C2C(=S)C(C)(C)N(C(=O)C(C)C)c3ccccc32)S1	inconclusive [inhibitor, single point]	
CC(=O)c1c(C(C)=O)c(C)n(Cc2ccccc2)c1C	inactive	
CC(=O)c1ccc(NC(=O)CSc2ccsc2[N+](=O)[O-])cc1	inconclusive [inhibitor, partial curve, poor fit]	
O=C(N/N=C/c1cccc(OCc2ccccc2)c1)c1ccc(Br)o1	active: 9.28 µM	
O=C1c2ccccc2C(=O)N1c1nc2nccc(-c3ccccc3)n2n1	inactive	
Cc1cccc(NS(=O)(=O)c2cccc(C(=O)NCC(C)(C)N3CCOCC3)c2)c1	inconclusive [inhibitor, single point]	
Brc1ccc(-c2cnc3n2CCCC3)cc1	inconclusive [inhibitor, single point]	
CCOC(=O)c1nnn(-c2nonc2-n2cccc2)c1CN1CCC(C)CC1	inconclusive [inhibitor, full curve, poor fit]	
Cc1ccc(NC(=O)CNC(=O)c2ccco2)nc1	inactive	
CC1CCN(C(C(=O)NC2CCCCC2)c2cc3c(cc2[N+](=O)[O-])OCO3)CC1 (stereo unspecified)	active: 9.28 µM	
C=CCc1ccc(O)c(-c2ccc(O)c(CC=C)c2)c1	inconclusive [inhibitor, partial curve, poor fit]	
COc1cc([C@@H]2c3cc4c(cc3[C@H](O)[C@H]3COC(=O)[C@H]23)OCO4)cc(OC)c1OC	active: 2.13 µM and active: 14.7 µM	
O=c1nc(/C=C/c2ccccc2C(F)(F)F)cc(C(F)(F)F)[nH]1	inconclusive [inhibitor, full curve, poor fit]	
COc1ccc(Cl)cc1S(=O)(=O)N(C)CC(=O)NCc1ccc2c(c1)OCO2	inactive	
O=C(COC(=O)CCSc1ccccc1Cl)NCc1ccco1		inactive: 3.22% [at 5.75 µM]
CCCCN(CC)CCNC(=O)CN(C)S(=O)(=O)c1ccc2c(c1)c(=O)n(C)c(=O)n2C	inconclusive [inhibitor, single point]	
O=C(O)CC(c1cccc(Cl)c1)n1cccc1 (stereo unspecified)	inactive	
Clc1ccccc1OCCN1CCCCC1	inactive	
O=C(c1ccc(NS(=O)(=O)c2ccc(Cl)c(Cl)c2)cc1)N1CCOCC1	inconclusive [inhibitor, single point]	
CCOC(=O)C1CCN(C(=O)C(CCSC)NC(=O)c2ccccc2OC)CC1 (stereo unspecified)	inconclusive [inhibitor, single point]	

Compound	Potency	activity change, negative = inhibition
CCn1c2ccccc2c2cc(NC(=O)CSc3nccc(=O)[nH]3)ccc21	inconclusive [inhibitor, partial curve, poor fit]	
O=C(/C=C/c1ccco1)Nc1ccc(-c2nc3ccccc3[nH]2)cc1	active: 4.15 µM	
COc1cc(/C=C/C(=O)Nc2cccc(S(=O)(=O)N3CCOCC3)c2)ccc1OCC#N	inconclusive [inhibitor, partial curve, poor fit]	
CCOc1ccc(N(CC(=O)Nc2ccccc2OCC)S(=O)(=O)c2c(C)noc2C)cc1	inconclusive [inhibitor, single point]	
COc1ccc(OC)c(C2c3[nH]c4ccccc4c3C[C@H]3C(=O)N(CCCOC(C)C)CC(=O)N23)c1 (stereo partly specified)	active: 7.38 µM	
COc1cccc2c1OC1(C)CC2NC(=O)N1c1cccc(C(=O)Nc2ccc3c(c2)OCCO3)c1 (stereo unspecified)	inactive	
COc1ccccc1NC(=O)CCSc1nnc(-c2ccncc2)o1	inactive	
CN(C(=O)c1ccccc1C(=O)OCC(=O)c1ccc(F)c(F)c1)C1CCCCC1	inconclusive [inhibitor, single point]	
COc1ccccc1N1CCN(C(=O)C(C)CS(=O)(=O)c2ccc3c(c2)NC(=O)CS3)CC1 (stereo unspecified)	inconclusive [inhibitor, partial curve, poor fit]	
CCOC(=O)c1c(NCc2ccc3c(c2)OCO3)c2ccccc2[nH]c1=O	inactive	
CC(=O)c1ccc(-c2ccc(/C=C(/Sc3n[nH]c(C)n3)C(=O)O)o2)cc1	inconclusive [inhibitor, partial curve]	
Cc1ccc2[nH]c(O)c(N=O)c2c1	inconclusive [inhibitor, single point]	
CCN(CC)S(=O)(=O)c1cccc(-n2c(O)c(C=Nc3ccccc3C(=O)O)c3ccccc3c2=O)c1	active: 13.1 µM	
CC(=O)/C(=N/Nc1ccc([N+](=O)[O-])cc1)N1CCCc2ccccc21	inconclusive [inhibitor, single point]	
Cn1c(CCN2CCCC2)nc2cc(NS(=O)(=O)c3ccccc3)ccc21	inconclusive [inhibitor, partial curve, poor fit]	
CCCCN(C(=O)c1ccc2c(c1)NC(=O)CS2)c1ccccc1	inconclusive [inhibitor, single point]	
Cn1c2ccccc2c(=O)c2c(=O)n(Cc3ccco3)c(COc3ccccc3)nc21	inconclusive [inhibitor, full curve, poor fit]	
CCc1ccc(C(=O)c2oc3nc(C)cc(C)c3c2N)cc1	inconclusive [inhibitor, single point]	
COc1cc(C)ccc1OCC(=O)Nc1ccccc1N1CCOCC1	inconclusive [inhibitor, partial curve, poor fit]	
O=C(CSc1nc(=O)n(Cc2ccccn2)c2c1CCC2)Nc1ccc(F)cc1F	inconclusive [inhibitor, single point]	
CCOC(=O)c1c(-c2ccc(C)cc2)csc1NC(=O)/C(C#N)=C/c1ccc(O)c(OC)c1	inconclusive [inhibitor, single point]	
Cc1cccc(Nc2c(-c3ccc(N4CCOCC4)cc3)nc3ncccn23)c1	inconclusive [inhibitor, single point]	

Compound	Potency	activity change, negative = inhibition
CCN1CCN(c2ccccc2NC(=O)C(C)Oc2ccc(C(C)=O)cc2)CC1 (stereo unspecified)	inconclusive [inhibitor, partial curve]	
COc1cc2c(cc1NC(=O)c1ccc(C(C)(C)C)cc1)CCCC2	inconclusive [inhibitor, full curve]	
O=C(NCCCc1ccncc1)C1CCC(=O)N(CCc2cccc(F)c2)C1 (stereo unspecified)	inactive	
COCCNC(=S)NNC(=O)c1ccc(-n2cnnn2)cc1	inactive	
CN1CCN(C2=Cc3ccccc3Sc3cc(F)c(Cl)cc32)CC1	active: 5.22 µM	
COc1ccc(C(=O)Nc2ccccc2C(=O)NCCCn2ccnc2)cc1	inconclusive [inhibitor, single point]	
COc1cccc(NC(=O)CN(C)C(=O)CCCc2c[nH]c3ccccc23)c1	inconclusive [inhibitor, single point]	
O=C(NCCCN1CCCC1=O)Nc1ccc([N+](=O)[O-])cc1	inactive	
Cc1ccc(S(=O)(=O)Nc2cc(=O)[nH]c(SCC(=O)Nc3cccc(C)c3)n2)cc1	active: 1.85 µM	
CSc1ncccc1C(=O)OCC(=O)Nc1cc(C(F)(F)F)ccc1N1CCOCC1	inconclusive [inhibitor, single point]	
COc1cc(C2Nc3ccc4ncccc4c3C3=C2C(=O)CCC3)ccc1O (stereo unspecified)	inconclusive [inhibitor, partial curve, poor fit]	
Cc1nn(-c2ccc(F)cc2)c(N)c1C1(O)C(=O)Nc2ccccc21 (stereo unspecified)	inactive	
Cc1sc2ncn(CC(=O)NCCCC(=O)N3CCN(c4ccccn4)CC3)c(=O)c2c1C	inconclusive [inhibitor, single point]	
CCOC(=O)c1cc(-c2ccccc2)sc1NC(=O)C(C)OC(=O)c1cccc(S(=O)(=O)N(C)C)c1 (stereo unspecified)	inconclusive [inhibitor, partial curve, poor fit]	
NC(=O)CC(NC(=O)Cc1ccc(Br)cc1)c1ccc(NCCOc2ccccc2)c([N+](=O)[O-])c1 (stereo unspecified)	inconclusive [inhibitor, partial curve]	
COC(=O)Nc1nc(C)c(C(=O)N(C)C)s1	inconclusive [inhibitor, full curve, poor fit]	
CCn1c(CCNC(=O)c2ccc(OC)cc2)nnc1SCc1ccc(Cl)c(Cl)c1	inconclusive [inhibitor, partial curve]	
CC(=O)O[C@H]1CC(C)(C)C(=C=C/C(C)=C/C=C/C(C)=C/C=C/C=C(C)/C=C/C=C(\C)C(=O)C[C@@]23O[C@]2(C)C[C@@H](O)CC3(C)C)[C@](C)(O)C1	active: 9.28 µM	
COc1ccc(S(=O)(=O)N2CCOC2CNC(=O)C(=O)NCc2ccncc2)cc1 (stereo unspecified)	inconclusive [inhibitor, partial curve]	
Cc1ccccc1OCC(=O)NCC(c1ccco1)N1CCCCC1 (stereo unspecified)	inactive	
CCOc1ccc(N2CC(C(=O)N3CCN(c4ccccn4)CC3)CC2=O)cc1 (stereo unspecified)	inactive	
COc1ccnc(Oc2ccc(F)cc2)c1-c1ncn[nH]1	inactive	
